# This is one part of the list.
# B1: UEA-I (Ulex europaeus), P22972 (protein)
# chain: SDDLSFKFKNFSQNGKDLSFQGDASVIETGVLQLNKVGNNLPDETGGIARYIAPIHIWNCNTGEVASFITSFSFFMETSANPKAATDGLTFFLAPPDSPLRRAGGYFGLFEDTKDNDSSYQTVAVEFDTIGSPVNFDDPGFPHIGIDVNRVKSINAERWNKRYGLNNVANVEIIYEASSKTLTASLTYPSDQTSISVTSIVDLKEILPEWVSVGFSGGTYIGRQATHEVLNWYFTSNLIN
# Columns and labels:
# Assay in all cases: glycan array binding signal (z-score within array); higher = stronger binding
# Details in all cases: glycan notation: IUPAC condensed, linker removed
# [1] = target: Gal6S(b1-4)Glc6S
# How it was run: (§1)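 Glycan array data came from 3228 arrays in the Consortium for Functional Glycomics database, and only arrays with an available protein sequence were kept. Glycan names were put into IUPAC-condensed notation, and columns mapping to the same glycan were averaged. The binding signal is a within-array Z-score, averaged across arrays of one protein sequence run at different concentrations or buffers and across linkers. A negative Z-score can be read as non-binding.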
# [2] = target: Gal6S(b1-4)GlcNAc
# How it was run: as §1
# [3] = target: Gal6S(b1-4)GlcNAc6S
# How it was run: as §1
# [4] = target: GalNAc(a1-3)Gal
# How it was run: as §1
# [5] = target: GalNAc(a1-3)GalNAc
# How it was run: as §1
# [6] = target: GalNAc(a1-3)GalNAc(a1-3)Gal(a1-4)Gal(b1-4)GlcNAc
# How it was run: as §1
# [7] = target: GalNAc(a1-3)GalNAc(b1-3)Gal(a1-4)Gal(b1-4)Glc
# How it was run: as §1
# [8] = target: GalNAc(a1-3)GalNAc(b1-3)Gal(a1-4)Gal(b1-4)GlcNAc
# How it was run: as §1
# [9] = target: GalNAc(b1-3)Gal
# How it was run: as §1
# [10] = target: GalNAc(b1-3)Gal(a1-4)Gal(b1-4)GlcNAc
# How it was run: as §1
# [11] = target: GalNAc(b1-3)Gal(a1-4)Gal(b1-4)GlcNAc(b1-3)Gal(b1-4)Glc
# How it was run: as §1
# [12] = target: GalNAc(b1-3)Gal(a1-6)Gal(b1-4)Glc
# How it was run: as §1
# [13] = target: GalNAc(b1-3)GalNAc
# How it was run: as §1
# [14] = target: GalNAc(b1-4)Gal(b1-4)Glc
# How it was run: as §1
# [15] = target: GalNAc(b1-4)GlcNAc
# How it was run: as §1
# [16] = target: GalNAc(b1-4)GlcNAc(b1-2)Man(a1-3)[GalNAc(b1-4)GlcNAc(b1-2)Man(a1-6)]Man(b1-4)GlcNAc(b1-4)GlcNAc
# How it was run: as §1
# [17] = target: GalNAc(b1-6)GalNAc
# How it was run: as §1
# [18] = target: Glc(a1-4)Glc
# How it was run: as §1
# [19] = target: Glc(a1-4)Glc(a1-4)Glc(a1-4)Glc
# How it was run: as §1
# [20] = target: Glc(a1-6)Glc(a1-6)Glc
# How it was run: as §1
# [21] = target: Glc(a1-6)Glc(a1-6)Glc(a1-6)Glc
# How it was run: as §1
# [22] = target: Glc(b1-4)Glc
# How it was run: as §1
# [23] = target: Glc(b1-6)Glc
# How it was run: as §1
# [24] = target: GlcA(b1-3)Gal
# How it was run: as §1
# [25] = target: GlcA(b1-3)GlcNAc
# How it was run: as §1
# [26] = target: GlcA(b1-6)Gal
# How it was run: as §1
# [27] = target: GlcNAc(a1-3)Gal(b1-4)GlcNAc
# How it was run: as §1
# [28] = target: GlcNAc(a1-4)Gal(b1-3)GlcNAc
# How it was run: as §1
# [29] = target: GlcNAc(a1-4)Gal(b1-4)GalNAc
# How it was run: as §1
# [30] = target: GlcNAc(a1-4)Gal(b1-4)GlcNAc
# How it was run: as §1
# [31] = target: GlcNAc(a1-4)Gal(b1-4)GlcNAc(b1-3)Gal(b1-4)Glc
# How it was run: as §1
# [32] = target: GlcNAc(a1-4)Gal(b1-4)GlcNAc(b1-3)Gal(b1-4)GlcNAc
# How it was run: as §1
# [33] = target: GlcNAc(a1-4)Gal(b1-4)GlcNAc(b1-3)Gal(b1-4)GlcNAc(b1-3)Gal(b1-4)GlcNAc
# How it was run: as §1
# [34] = target: GlcNAc(a1-4)Gal(b1-4)GlcNAc(b1-3)Gal(b1-4)[Fuc(a1-3)]GlcNAc(b1-3)Gal(b1-4)[Fuc(a1-3)]GlcNAc
# How it was run: as §1
# [35] = target: GlcNAc(a1-6)Gal(b1-4)GlcNAc
# How it was run: as §1
# [36] = target: GlcNAc(b1-2)Gal(b1-3)GalNAc
# How it was run: as §1
# [37] = target: GlcNAc(b1-2)Man(a1-3)[GlcNAc(b1-2)Man(a1-6)]Man(b1-4)GlcNAc(b1-4)GlcNAc
# How it was run: as §1
binder,measurement,setting,value
B1,glycan array binding signal (z-score),[1],-0.18
same,glycan array binding signal (z-score),[2],-0.188
same,glycan array binding signal (z-score),[3],-0.172
same,glycan array binding signal (z-score),[4],-0.179
same,glycan array binding signal (z-score),[5],-0.182
same,glycan array binding signal (z-score),[6],-0.184
same,glycan array binding signal (z-score),[7],-0.187
same,glycan array binding signal (z-score),[8],-0.173
same,glycan array binding signal (z-score),[9],-0.18
same,glycan array binding signal (z-score),[10],-0.179
same,glycan array binding signal (z-score),[11],-0.167
same,glycan array binding signal (z-score),[12],-0.175
same,glycan array binding signal (z-score),[13],-0.174
same,glycan array binding signal (z-score),[14],-0.17
same,glycan array binding signal (z-score),[15],-0.009
same,glycan array binding signal (z-score),[16],-0.173
same,glycan array binding signal (z-score),[17],-0.187
same,glycan array binding signal (z-score),[18],-0.177
same,glycan array binding signal (z-score),[19],-0.186
same,glycan array binding signal (z-score),[20],-0.177
same,glycan array binding signal (z-score),[21],-0.177
same,glycan array binding signal (z-score),[22],-0.178
same,glycan array binding signal (z-score),[23],-0.185
same,glycan array binding signal (z-score),[24],-0.18
same,glycan array binding signal (z-score),[25],-0.167
same,glycan array binding signal (z-score),[26],-0.183
same,glycan array binding signal (z-score),[27],0.042
same,glycan array binding signal (z-score),[28],-0.177
same,glycan array binding signal (z-score),[29],-0.175
same,glycan array binding signal (z-score),[30],-0.164
same,glycan array binding signal (z-score),[31],-0.152
same,glycan array binding signal (z-score),[32],0.148
same,glycan array binding signal (z-score),[33],-0.063
same,glycan array binding signal (z-score),[34],-0.157
same,glycan array binding signal (z-score),[35],-0.176
same,glycan array binding signal (z-score),[36],-0.183
same,glycan array binding signal (z-score),[37],-0.183
